Measured values reported in PMC4336329 (PLoS ONE, 2015).
The campaign covered roughly 310,000 compounds. About 14,000 (4.5%) showed an effect of 50% or more. The effect is printed as a negative number. The list shows a part of the results.

Each molecule was assayed against human ether-à-go-go-related gene (hERG) potassium channel (human, UniProt Q12809) (assay: primary screen, population patch clamp on CHO cells stably expressing hERG).
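Also: peak tail current of the secondary pulse compared with the same well before compound.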

Sequence of human ether-à-go-go-related gene (hERG) potassium channel (Q12809 whole entry, looked up): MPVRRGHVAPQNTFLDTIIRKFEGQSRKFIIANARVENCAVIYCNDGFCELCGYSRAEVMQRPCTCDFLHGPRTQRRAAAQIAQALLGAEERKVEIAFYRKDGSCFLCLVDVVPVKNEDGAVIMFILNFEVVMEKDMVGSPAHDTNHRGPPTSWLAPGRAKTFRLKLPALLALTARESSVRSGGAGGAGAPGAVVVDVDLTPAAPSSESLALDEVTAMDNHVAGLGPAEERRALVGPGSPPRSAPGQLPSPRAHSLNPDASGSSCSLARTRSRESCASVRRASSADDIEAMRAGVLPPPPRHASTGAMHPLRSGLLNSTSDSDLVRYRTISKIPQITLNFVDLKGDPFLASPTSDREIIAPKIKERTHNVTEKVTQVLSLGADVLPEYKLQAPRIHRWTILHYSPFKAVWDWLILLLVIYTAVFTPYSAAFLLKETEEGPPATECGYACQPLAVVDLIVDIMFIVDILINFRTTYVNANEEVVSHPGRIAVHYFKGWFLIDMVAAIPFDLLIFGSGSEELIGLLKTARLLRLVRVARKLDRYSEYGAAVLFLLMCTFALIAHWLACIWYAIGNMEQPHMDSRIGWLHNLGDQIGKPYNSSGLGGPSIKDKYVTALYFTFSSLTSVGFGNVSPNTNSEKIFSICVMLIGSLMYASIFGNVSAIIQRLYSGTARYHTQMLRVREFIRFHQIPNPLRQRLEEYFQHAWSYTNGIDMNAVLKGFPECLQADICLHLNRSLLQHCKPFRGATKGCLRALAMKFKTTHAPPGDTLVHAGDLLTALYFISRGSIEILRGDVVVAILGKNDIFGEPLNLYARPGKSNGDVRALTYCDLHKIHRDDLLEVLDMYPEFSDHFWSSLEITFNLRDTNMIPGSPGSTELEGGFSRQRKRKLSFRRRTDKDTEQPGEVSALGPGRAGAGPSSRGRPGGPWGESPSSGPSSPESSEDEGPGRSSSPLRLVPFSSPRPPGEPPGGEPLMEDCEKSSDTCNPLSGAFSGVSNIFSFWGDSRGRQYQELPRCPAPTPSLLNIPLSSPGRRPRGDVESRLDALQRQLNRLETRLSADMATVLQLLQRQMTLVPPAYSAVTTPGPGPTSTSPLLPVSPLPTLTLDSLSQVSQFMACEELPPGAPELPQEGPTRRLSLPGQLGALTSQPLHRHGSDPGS

Row | SMILES | hERG current change (%, negative = inhibition) at 10uM [%]
1 | O=C(COc1ccc([N+](=O)[O-])cc1)NNC(=O)Nc1ccccc1F | -0.769
2 | Cn1c(SCC(=O)Nc2ccc(N3CCOCC3)cc2)nnc1-c1ccco1 | 6.01
3 | CN1C(=O)C(CC(=O)N2CCN(C(c3ccccc3)c3ccccc3)CC2)N(C)C1=O (stereo not drawn) | -0.215
4 | COc1cccc(N2C(=O)CC(N3CCN(CCN=CC4=C(O)CC(C)(C)CC4=O)CC3)C2=O)c1 (stereo not drawn) | 8.67
5 | Cc1cccc(NC(=O)CCC(=O)OCc2ccc(Br)cc2)c1 | -7.05
6 | O=C(COc1ccccc1)Nc1ccc(S(=O)(=O)Nc2ccccn2)cc1 | -14.4
7 | COc1ccc2c(c1)c(C(=O)CN1CCC3(CC1)OCCO3)c(C)n2Cc1ccccc1 | -53
8 | Cc1cnc(C(=O)OCc2ccc(COC(=O)c3cnc(C)cn3)cc2)cn1 | 30.7
9 | CC(C)[N+](C)(CCOC(=O)C1c2ccccc2Oc2ccccc21)C(C)C.[Br-] | 8.11
10 | Cc1ccc(CN(C)CCc2ccccn2)cc1 | -41.1
11 | O=C1CC(N2CCSCC2)C(=O)N1c1cccc(Br)c1 (stereo not drawn) | -3.54
12 | CC(C)Nc1nc(N(c2ccccc2)c2ccccc2)nc(-n2ccnc2)n1 | 21.3
13 | CC1CCc2nc(N)c(C#N)c(-c3ccncc3)c2C1 (stereo not drawn) | 11.5
14 | O=C(COC(=O)c1ccc2c(c1)OCO2)Nc1nc(-c2ccccc2)cs1 | 22.2
15 | O=C(N/N=C/c1cc(Br)c(Br)o1)c1cccnc1 | -2.79
16 | COc1ccc(C(=O)C2CCCN(C(=O)C3=CCCC3)C2)c(C)c1 (stereo not drawn) | -2.27
17 | COC(=O)c1ccc(Oc2cc(C)nc(NCc3ccccc3)n2)cc1 | 4.53
18 | COc1ccc(C(=O)OCC(=O)Nc2ccc(OC(F)F)cc2)c(OC)c1 | -33.9
19 | Cc1cc(C)c(OCC(=O)OCC(=O)N2CCCc3ccccc32)c(C)c1 | 16
20 | NC(=O)c1cc(S(=O)(=O)NCc2ccccc2)cs1 | 27.4
21 | COc1ccc2c(OC)cc(=O)n(C)c2c1 | 3.11

Row | SMILES | hERG current change (%, negative = inhibition) at 10uM [%]
22 | Cc1cc(C)nc(NC(=O)c2ccc([N+](=O)[O-])c(C)c2)n1 | 7.43
23 | CSc1ncc(/C=C2/C(=O)NC(=O)N(c3ccc(C(C)C)cc3)C2=O)cn1 | 27.7
24 | CCCCN(CC)CCNC(=O)c1cc2c(=O)[nH]c3ccc(C)cc3c2s1 | -1.34
25 | CC(=O)c1ccc(N2CCN(C(=O)CCNC(=O)Cn3ccc4ccccc4c3=O)CC2)cc1 | 17.5
26 | COCC(=O)Nc1nc2ccc(C)cc2s1 | 10.4
27 | CC1CCc2c(sc3nc(CSc4nnnn4C)[nH]c(=O)c23)C1 (stereo not drawn) | -6.88
28 | CCCc1cc(-c2n[nH]c(=S)n2CC)cs1 | 4.92
29 | CCCOc1ccc(CNC(=O)c2ccc3nc(N4CCOCC4)sc3c2)cc1 | 10.4
30 | Cc1ccc(C(=O)COc2ccccc2C(=O)Nc2ccccc2)cc1 | 12.1
31 | CC(C)(C)n1nnnc1C(c1cccs1)N(Cc1cccnc1)Cc1ccco1 (stereo not drawn) | -45.9
32 | COc1ccc(OC)c(/C=N/Nc2nc(C)cc(=O)[nH]2)c1 | 20.3
33 | COc1ccc(N2CCN(C(=O)c3ccc(CS(=O)c4cccc(C)c4)o3)CC2)cc1 (stereo not drawn) | -43.1
34 | CS(=O)(=O)N(CC(=O)N1CCCC1)Cc1ccc(Cl)c(Cl)c1 | -0.845
35 | Cc1ccc(C(=O)c2nocc2C(=O)c2cccs2)cc1 | -19.7
36 | Cn1c(=O)n(C)c2cc([N+](=O)[O-])c(N3CCN(C(=O)c4ccccc4Br)CC3)cc21 | -70.6
37 | CSC1=N/C(=C\c2ccc(C)s2)C(=O)S1 | 15.7
38 | COc1ccc(Cl)cc1S(=O)(=O)n1c([N+](=O)[O-])cnc1C | -35.9
39 | COc1ccc(C(=O)Nn2c(SCC(=O)NC3CCCC3)nc3ccccc3c2=O)cc1 | -9.11
40 | CCCOc1ccc(N2C(=O)CC(N(O)c3ccccc3)C2=O)cc1 (stereo not drawn) | 13.1
41 | COC(=O)C(C)N(c1ccc(C)cc1)S(=O)(=O)c1c(C)[nH]c(=O)[nH]c1=O (stereo not drawn) | 1.72
42 | Cc1cc(C)c(OCC(=O)Nc2cccc(O)c2)cc1C | 10.9
